Data on 23 compounds can be found in the supplement of paper PMC10037445.

Values joined by “and” are separate entries in the source; they are usually repeats but may differ in a detail not shown here. Equal entries are not always repeated. Whole data set: some 2,900 compounds, median “NF-kB SEAP reporter activity, fold change vs agonist alone” near 0.99, cut for the highest 2% near 2.6. Some of the results follow.

Assay [1] has as its system RAW-Dual. Description: NF-kB SEAP reporter activity, fold change vs agonist alone; cytotoxicity flag (confluency mask): not cytotoxic; higher = enhanced NF-kB activity. Put shortly: (§1)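 After 50 nL of library stock was delivered by pin tool to RAW-Dual macrophages (50,000 cells/well, DMEM, 384-well plates), a PRR agonist was added 1 h later and the plates were kept at 37 °C, 5% CO2. Twenty hours later, IRF was read from supernatant by QuantiLuc luminescence and NF-κB by QuantiBlue absorbance at 620 nm. Reporter activity is stated as fold change over agonist-alone wells. Wells with IncuCyte confluency under 70% of agonist controls in both mask sets were counted as cytotoxic.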

For assay [2], the system named is RAW-Dual. Description: NF-kB SEAP reporter activity, fold change vs agonist alone; higher = enhanced NF-kB activity. Particulars: library stock concentration (final ~1000-fold dilution): 10 mM. The method, boiled down: as §1
The subject of assay [3] is RAW-Dual. Description: NF-kB SEAP reporter activity, fold change vs agonist alone; cytotoxicity flag (confluency mask): cytotoxic (confluency <70% of control); higher = enhanced NF-kB activity. Put shortly:
as §1

[4] abbreviates: agonist: ODN 1826 (TLR9) 0.5 ug/mL.
The mark [5] stands for this setting: agonist: Pam2CSK4 (TLR2/6) 0.1 ug/mL.
Setting [6] is: agonist: Pam3CSK4 (TLR2/1) 0.1 ug/mL.
Where [7] appears, read: cytotoxicity flag (confluency mask): not cytotoxic, agonist: Imiquimod (TLR7) […].
Where [8] appears, read: cytotoxicity flag (confluency mask): not cytotoxic, agonist: MPLA (TLR4) […].
[9] abbreviates: cytotoxicity flag (confluency mask): cytotoxic (confluency <70% of control), agonist: Imiquimod (TLR7) […].
Setting [10] is: cytotoxicity flag (confluency mask): cytotoxic (confluency <70% of control), agonist: MPLA (TLR4) […].

`COc1cn(-c2ccc(-n3cccn3)cc2F)nc(-c2ccnn2-c2ccccc2)c1=O` (library stock concentration (final ~1000-fold dilution): 10 mM): the “NF-kB SEAP reporter activity” value with RAW-Dual [1] (agonist: LPS (TLR4) 0.1 ug/mL) came out at 1.14; with RAW-Dual [1] (setting [4]), 1.3; with RAW-Dual [1] (setting [5]) it was 0.992; in the assay with RAW-Dual [1] (setting [6]), 1.28.

Consider `COc1cn(-c2ccc(-n3cccn3)cc2F)nc(-c2ccnn2-c2ccccc2)c1=O`, for which the entries for the “NF-kB SEAP reporter activity” value with RAW-Dual [2] (setting [7]) and in the assay with RAW-Dual [2] (setting [8]) were 1.19 and 1.1, respectively.

In the case of `COC(=O)NC(C(=O)NC(Cc1ccccc1)C(O)CN(Cc1ccc(-c2ccccn2)cc1)NC(=O)C(NC(=O)OC)C(C)(C)C)C(C)(C)C` (centres undefined) (library stock concentration (final ~1000-fold dilution): 10 mM), the “NF-kB SEAP reporter activity” value was 1.03 with RAW-Dual [1] (agonist: LPS (TLR4) 0.1 ug/mL), 1.02 with RAW-Dual [1] (setting [4]), 1.11 in the assay on RAW-Dual [1] (setting [5]) and 0.79 with RAW-Dual [1] (setting [6]).

For `COC(=O)NC(C(=O)NC(Cc1ccccc1)C(O)CN(Cc1ccc(-c2ccccn2)cc1)NC(=O)C(NC(=O)OC)C(C)(C)C)C(C)(C)C` (centres undefined), the “NF-kB SEAP reporter activity” value in the assay with RAW-Dual [2] (setting [8]) worked out at 0.961.

As for `CC(NC(=O)C(NC(=O)OCc1ccccc1)C(C)C)C(=O)NC(CC(=O)O)C(=O)CF` (centres undefined) (library stock concentration (final ~1000-fold dilution): 10 mM), the “NF-kB SEAP reporter activity” value in the assay on RAW-Dual [1] (agonist: LPS (TLR4) 0.1 ug/mL) came out at 1.23; with RAW-Dual [1] (setting [4]) it was 0.939; in the assay with RAW-Dual [1] (setting [5]), 0.948; in the assay on RAW-Dual [1] (setting [6]), 1.03.

Turning to `CC(NC(=O)C(NC(=O)OCc1ccccc1)C(C)C)C(=O)NC(CC(=O)O)C(=O)CF` (centres undefined), the “NF-kB SEAP reporter activity” value is 0.964 in the assay on RAW-Dual [2] (setting [7]) and 0.934 in the assay with RAW-Dual [2] (setting [8]).

On to `C=CC(=O)Nc1cccc(Oc2nc(Nc3ccc(N4CCN(C)CC4)cc3)ncc2Cl)c1`, for which the “NF-kB SEAP reporter activity” value was 0.491 in the assay on RAW-Dual [2] (setting [7]) and 0.339 with RAW-Dual [2] (setting [8]).

As to `C=CC(=O)Nc1cccc(Oc2nc(Nc3ccc(N4CCN(C)CC4)cc3)ncc2Cl)c1` (library stock concentration (final ~1000-fold dilution): 10 mM), the “NF-kB SEAP reporter activity” value came out at 0.257 in the assay on RAW-Dual [1] (agonist: LPS (TLR4) 0.1 ug/mL), 0.175 in the assay with RAW-Dual [1] (setting [4]), 0.0969 with RAW-Dual [1] (setting [5]) and 0.142 in the assay on RAW-Dual [1] (setting [6]).

As to `CC(C)(NS(=O)(=O)c1ccc2c(Cl)cnc(NC(=N)N)c2c1)C(=O)O.Cl` (library stock concentration (final ~1000-fold dilution): 10 mM), the “NF-kB SEAP reporter activity” value was 1.1 in the assay with RAW-Dual [1] (agonist: LPS (TLR4) 0.1 ug/mL), 1.01 in the assay on RAW-Dual [1] (setting [4]), 0.913 in the assay on RAW-Dual [1] (setting [5]) and 0.764 with RAW-Dual [1] (setting [6]).

On to `CC(C)(NS(=O)(=O)c1ccc2c(Cl)cnc(NC(=N)N)c2c1)C(=O)O.Cl`, for which the “NF-kB SEAP reporter activity” value in the assay on RAW-Dual [2] (setting [7]) amounted to 0.99; in the assay with RAW-Dual [2] (setting [8]) it was 0.923.

Regarding `CCOc1cc(N)c(Cl)cc1C(=O)NCC1CN(Cc2ccc(F)cc2)CCO1.O=C(O)CC(O)(CC(=O)O)C(=O)O` (centres undefined), the results for the “NF-kB SEAP reporter activity” value with RAW-Dual [2] (setting [7]) and with RAW-Dual [2] (setting [8]) were 0.993 and 1.05, respectively.

Turning to `CCOc1cc(N)c(Cl)cc1C(=O)NCC1CN(Cc2ccc(F)cc2)CCO1.O=C(O)CC(O)(CC(=O)O)C(=O)O` (centres undefined) (library stock concentration (final ~1000-fold dilution): 10 mM), the “NF-kB SEAP reporter activity” value is 1.02 in the assay on RAW-Dual [1] (agonist: LPS (TLR4) 0.1 ug/mL), 1.09 in the assay on RAW-Dual [1] (setting [4]), 0.988 with RAW-Dual [1] (setting [5]) and 1.11 with RAW-Dual [1] (setting [6]).

For the compound `O=C(Oc1cccc(F)c1OC(=O)c1cccc(O)c1)c1cccc(O)c1`, the “NF-kB SEAP reporter activity” value in the assay with RAW-Dual [2] (setting [9]) stood at 0.964; with RAW-Dual [2] (setting [10]), 1.24.

As for `O=C(Oc1cccc(F)c1OC(=O)c1cccc(O)c1)c1cccc(O)c1` (library stock concentration (final ~1000-fold dilution): 10 mM), the “NF-kB SEAP reporter activity” value with RAW-Dual [3] (agonist: LPS (TLR4) 0.1 ug/mL) was found to be 1.21; in the assay on RAW-Dual [3] (setting [4]), 0.597; in the assay with RAW-Dual [3] (setting [5]), 0.639; with RAW-Dual [3] (setting [6]), 0.541.

With `CCn1c(=O)c(-c2ccc(Cl)cc2Cl)cc2cnc(Nc3ccc(N4CCNCC4)c(F)c3)nc21`, the results for the “NF-kB SEAP reporter activity” value in the assay on RAW-Dual [2] (setting [9]) and in the assay on RAW-Dual [2] (setting [10]) were 0.95 and 0.735, respectively.

Regarding `CCn1c(=O)c(-c2ccc(Cl)cc2Cl)cc2cnc(Nc3ccc(N4CCNCC4)c(F)c3)nc21` (library stock concentration (final ~1000-fold dilution): 10 mM), the “NF-kB SEAP reporter activity” value is 0.244 in the assay with RAW-Dual [3] (agonist: LPS (TLR4) 0.1 ug/mL), 1.06 in the assay on RAW-Dual [3] (setting [4]), 0.337 in the assay with RAW-Dual [3] (setting [5]) and 0.331 in the assay on RAW-Dual [3] (setting [6]).

As for `COc1ccc(Cl)cc1NC(=O)Nc1cc(C)nc2ccccc12`, the figures for the “NF-kB SEAP reporter activity” value in the assay with RAW-Dual [2] (setting [7]) and with RAW-Dual [2] (setting [8]) were 0.868 and 1.04, respectively.

In the case of `COc1ccc(Cl)cc1NC(=O)Nc1cc(C)nc2ccccc12` (library stock concentration (final ~1000-fold dilution): 10 mM), the “NF-kB SEAP reporter activity” value in the assay on RAW-Dual [1] (agonist: LPS (TLR4) 0.1 ug/mL) stood at 1.18; with RAW-Dual [1] (setting [4]), 1.05; with RAW-Dual [1] (setting [5]) it was 0.871; in the assay with RAW-Dual [1] (setting [6]), 0.996.

Regarding `c1ccc(-c2ccc(C(c3ccccc3)n3ccnc3)cc2)cc1` (centres undefined) (library stock concentration (final ~1000-fold dilution): 10 mM), the “NF-kB SEAP reporter activity” value with RAW-Dual [1] (agonist: LPS (TLR4) 0.1 ug/mL) is 1.01; with RAW-Dual [1] (setting [4]), 0.704; with RAW-Dual [1] (setting [5]), 0.589; in the assay with RAW-Dual [1] (setting [6]), 0.574.

Regarding `c1ccc(-c2ccc(C(c3ccccc3)n3ccnc3)cc2)cc1` (centres undefined), the “NF-kB SEAP reporter activity” value with RAW-Dual [2] (setting [7]) is 0.86; in the assay on RAW-Dual [2] (setting [8]), 0.867.

In the case of `COc1cc2c(cc1O)CC[n+]1cc3c(OC)c(OC)ccc3cc1-2` (library stock concentration (final ~1000-fold dilution): 10 mM), the “NF-kB SEAP reporter activity” value in the assay with RAW-Dual [1] (agonist: LPS (TLR4) 0.1 ug/mL) was 1.01 and 1.19; in the assay with RAW-Dual [1] (setting [4]), 0.974 and 1.04; in the assay on RAW-Dual [1] (setting [5]), 0.965 and 1.09; with RAW-Dual [1] (setting [6]), 1.1 and 1.11.

`O=c1[nH]c2ccccc2n1CCN1CCN(c2cccc(C(F)(F)F)c2)CC1` (library stock concentration (final ~1000-fold dilution): 10 mM): the “NF-kB SEAP reporter activity” value in the assay on RAW-Dual [1] (agonist: LPS (TLR4) 0.1 ug/mL) turned out to be 0.314; in the assay on RAW-Dual [1] (setting [4]) it was 0.45; with RAW-Dual [1] (setting [5]) it was 0.284; in the assay with RAW-Dual [1] (setting [6]), 0.386.

As for `O=c1[nH]c2ccccc2n1CCN1CCN(c2cccc(C(F)(F)F)c2)CC1`, the figures for the “NF-kB SEAP reporter activity” value in the assay on RAW-Dual [2] (setting [7]) and in the assay on RAW-Dual [2] (setting [8]) were 0.669 and 0.534, respectively.
